PubChem BioAssay AID588855 (National Center for Advancing Translational Sciences (NCATS), 2011)
Hit rate of the full screen: of about 410,000 compounds, about 5,000 (1.2%) were called active. The inconclusive results got no clear call from the source; some entries with a clear call stand among them for comparison. Calls come from the whole dose curve; as a rule, active = well fitted inhibition curve with a large enough effect; inconclusive = small, poorly fitted or top-dose-only effect; inactive = no such curve, though single readings can be large or run the other way. Potencies beside an inconclusive call are fits to weak or partial responses and may not hold up.

Experiment: qHTS for Inhibitors of TGF-b; note: nearly all actives have a fitted effect of over 65% in size
Conditions: HepG2 CAGA-GFP TGF-b/SMAD3 reporter, GFP fluorescence, 18 h, TGF-beta stimulated, 500 pg/mL final; series mostly up to 46.1 µM; activity, negative = inhibition: at the top concentration
Method in brief: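 Read-out: total well GFP (ex488/em500-530) summed from mean per-cell fluorescence. Cells: HEPG2 CAGA-GFP, 1% FBS DMEM, 18 h at 37 degrees C with 500 pg/mL final TGF-beta. Unstimulated wells served as the full-inhibition control; stimulated DMSO wells = 0%.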
% is set by controls: 0 for no effect and ±100 for the full control effect; potency is the fitted concentration of half-maximal effect; tags give direction and shape of the fitted curve.

Row | SMILES | Potency | activity, negative = inhibition
1 | O=C(CNCCC1=CCCCC1)Nc1ccccc1N1CCCCC1 | inconclusive: 35.5 µM [inhibitor, single point] | 
2 | C=CCOc1ccc(/C=N/Nc2ccccn2)cc1OC |  | inactive: -23.1%
3 | COc1ccc(CNC(=O)C(c2ccccc2F)N(C(=O)c2csnn2)C2CC2)cc1 (stereo not drawn) |  | inactive: -11.7%
4 | Cc1ccc(NC(=O)CN(c2ccccc2)S(=O)(=O)N(C)C)cc1Cl | inconclusive: 31.6 µM [inhibitor, single point] | 
5 | Cc1ccc2c(COC(=O)C3CC(=O)N(c4ccc5c(c4)OCCO5)C3)cc(=O)oc2c1 (stereo not drawn) | inconclusive: 6.31 µM [inhibitor, single point] | 
6 | Cc1nn(S(=O)(=O)c2ccc(Cl)cc2)c(C)c1Sc1ccc([N+](=O)[O-])cc1 | inconclusive: 5.62 µM [inhibitor, single point] | 
7 | O=Nc1c(O)[nH]c2c(F)cccc12 |  | inactive: -13.6%
8 | CCOC(=O)c1sc(NC(=O)CSc2n[nH]c(-c3ccncc3)n2)c(C#N)c1C | inconclusive: 14.1 µM [inhibitor, single point] | 
9 | CC(C)CN=C(NS(=O)(=O)c1ccccc1)C(Cl)(Cl)Cl | inconclusive: 3.16 µM [inhibitor, single point] | 
10 | Cc1ccc2c(c1)C(=O)C(=O)N2CC1COc2ccccc2O1 (stereo not drawn) | inconclusive: 5.62 µM [inhibitor, single point] | 
11 | O=C(c1noc2c1CCCCC2)N1CCN(c2ccc(Cl)cc2)CC1 | inconclusive: 7.08 µM [inhibitor, full curve, poor fit] | 
12 | CCN1C(c2ccccc2)=C(c2ccccc2)S/C1=C\C=C1/SC(=S)N(C)C1=O |  | inactive: -9.46%
13 | CCN1C[C@@H]2[C@@H]3C(=O)N(Cc4ccccc4)C(=O)[C@@H]3[C@](C)(C1=O)N2C(=O)c1ccc(Cl)c(Cl)c1 | inconclusive: 35.5 µM [inhibitor, single point] | 
14 | COc1ccc(Cl)cc1NC(=O)c1cc(-c2ccco2)on1 | inconclusive: 20 µM [inhibitor, partial curve, poor fit] | 
15 | CN(CC(=O)NCc1ccco1)S(=O)(=O)c1ccc(F)cc1 |  | inactive: -12.9%
16 | COc1ccccc1NC(=O)Cn1c(=O)n(Cc2ccc3c(c2)OCO3)c(=O)c2oc3ccccc3c21 |  | inactive: 4.17%
17 | Cc1ccc(NC(=O)CN(C)S(=O)(=O)c2ccc(Br)s2)cc1F | inconclusive: 35.5 µM [inhibitor, single point] | 
18 | CCCCCc1ccc2cc(C#N)ccc2n1 | inconclusive: 28.2 µM [inhibitor, single point] | 
19 | COc1ccc(OC)c(S(=O)(=O)Nc2cc3c(cc2C)n(C)c(=O)c(=O)n3C)c1 | inconclusive: 6.31 µM [inhibitor, single point] | 
20 | Oc1ccc(Cl)cc1-c1cc(C(F)(F)C(F)F)nc(-c2ccccc2)n1 | inconclusive: 25.1 µM [inhibitor, single point] | 
21 | COc1ccc(N(C(=O)/C=C\C(=O)Nc2ccc(Cl)cc2)C(C(=O)NCc2ccco2)c2ccc(C)cc2)cc1 (stereo not drawn) | active: 12.6 µM | 
22 | Cc1ccccc1NC(=S)c1nc2ccccc2[nH]1 | inconclusive: 35.5 µM [inhibitor, single point] | 

Row | SMILES | Potency | activity, negative = inhibition
23 | COc1ccc(NC(=O)CCS(=O)(=O)c2nc(-c3cccs3)cc(C(F)(F)F)n2)cc1OC | active: 15.8 µM | 
24 | NS(=O)(=O)c1ccc(NC(=O)c2ccc(S(=O)(=O)N3CCc4ccccc43)cc2)cc1 | inconclusive: 15.8 µM [inhibitor, single point] | 
25 | CC(C)C1CC(CCN)(Cc2ccccc2)CCO1 (stereo not drawn) |  | inactive: -8.89%
26 | Cc1ccc(C(=O)N/C(=C\c2ccc(-c3cccc([N+](=O)[O-])c3)o2)C(=O)NCCCN(C)C)cc1 | inconclusive: 35.5 µM [inhibitor, single point] | 
27 | COc1ccc(C2CC(c3ccccc3)Oc3cc(C)cc(C)c32)cc1 (stereo not drawn) | inactive | 
28 | COc1ccccc1N1CCN(CC(=O)Nc2ccc(Cl)c(C(F)(F)F)c2)CC1 | inconclusive: 22.4 µM [inhibitor, single point] | 
29 | CC(=O)Nc1ccc(N=Nc2ccccc2)cc1[N+](=O)[O-] |  | inactive: 1.31%
30 | O=C(N/N=C1/C(=O)c2cccc3cccc1c23)c1ccc(Cl)cc1 |  | inactive: -25.6%
31 | COc1ccc(OC(C)C(=O)NCc2nc(-c3ccc(Cl)cc3)no2)cc1 (stereo not drawn) | inconclusive: 17.8 µM [inhibitor, single point] | 
32 | COc1ccc2c(C(=O)CCl)c[nH]c2c1 | active: 14.1 µM | 
33 | O=C(CCl)N(Cc1cc(=O)[nH]c2ccccc12)c1ccccc1 | active: 11.2 µM | 
34 | COc1ccc(OC)c(C2NC(=O)N(C)C(C)=C2C(=O)OCc2ccccc2)c1 (stereo not drawn) | inconclusive: 22.4 µM [inhibitor, single point] | 
35 | CCC(C(=O)NCc1ccccc1)n1ncn2c(cc3occc32)c1=O (stereo not drawn) | inconclusive: 1.78 µM [inhibitor, partial curve, poor fit] | 
36 | Cc1ccc(-c2[nH]ncc2/C=N/n2c(COc3ccccc3C)nc3ccccc3c2=O)cc1 | active: 12.6 µM | 
37 | Cn1c(CNc2nc(-c3ccccc3)cs2)nnc1SCC(=O)c1ccccc1 | inconclusive: 10 µM [inhibitor, partial curve, poor fit] | 
38 | CCN(CC)S(=O)(=O)c1ccc(N2CC(C(=O)N3Cc4ccccc4CC3C(N)=O)CC2=O)cc1 (stereo not drawn) |  | inactive: -2.92%
39 | CCOc1ccc(N(CC(=O)Nc2ccc(C)c(Cl)c2)S(C)(=O)=O)cc1 | inconclusive: 20 µM [inhibitor, single point] | 
40 | O=C1C2C3C=CC(C3)C2C(=O)N1CCN1CCN(S(=O)(=O)/C=C/c2ccccc2)CC1 (stereo not drawn) | inconclusive: 7.08 µM [inhibitor, partial curve, poor fit] | 
41 | COC(=O)c1c(C)c2c(C)cc3ccccn3c-2c1C(=O)OC | inconclusive: 15.8 µM [inhibitor, partial curve, poor fit] | 
42 | O=C(NCCc1ccccc1)c1ccc(CSc2nc3ccncc3n2Cc2ccccc2)cc1 | inconclusive: 3.55 µM [inhibitor, partial curve] | 
43 | COc1ccc(C2CC(c3ccccc3)Oc3c(C)ccc(C(C)C)c32)cc1 (stereo not drawn) | inconclusive: 3.55 µM [inhibitor, single point] | 
